{
  "source": "PubChem BioAssay AID1458",
  "about": "(National Center for Advancing Translational Sciences (NCATS), 2008)",
  "note": "Screen size: about 210,000 compounds; about 5,900 (2.8%) were called active. Inconclusive results, whose numbers are uncertain, are shown with a selection of clear calls. Calls follow the shape of the dose curve; as a rule, active = well fitted activation curve with a large enough effect; inconclusive = small, poorly fitted or top-dose-only effect; inactive = no such curve, though single readings can be large or run the other way. Potencies beside an inconclusive call are fits to weak or partial responses and may not hold up. Potency is read from the fitted curve at half-maximal effect; tags tell the direction and shape of the fitted curve.",
  "data": [
    {"test": "qHTS Assay for Enhancers of SMN2 Splice Variant Expression; also: nearly all actives have a fitted effect of over 55% in size; as to activity change, positive = activation: % of control where 0% means no effect", "conditions": "HEK293 SMN2-luciferase splicing reporter, luminescence, 30-36 h; activity change, positive = activation: at 46.1 µM (top of the series)", "procedure,_shortened": "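HEK293 cells carry an SMN2 minigene-luciferase reporter in which exon 7 inclusion puts luciferase in frame. Cells were seeded at 2000 cells/well, attached for 10-12 hours, then exposed to compounds for 30-36 hours at 37C before ONE-Glo luminescence.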", "values": [
      {"smiles": "COC(=O)c1cc(Cl)c(NC(=O)c2ccc(C(C)(C)C)cc2)cc1OC", "Potency": "inconclusive: 25.1 µM [activator, single point]"},
      {"smiles": "NCCOc1ccccc1OCCN", "activity change, positive = activation": "inactive: -10.7%"},
      {"smiles": "CCOc1ccc(C(=O)NNC2CC(=O)N(Cc3ccc(Cl)cc3)C2=O)cc1OC", "note": "(stereo unspecified)", "Potency": "inconclusive: 3.55 µM [activator, single point]"},
      {"smiles": "O=C1CCCC/C1=C\\Nc1ccc(Cl)cn1", "Potency": "inconclusive: 12.6 µM [activator, partial curve, poor fit]"},
      {"smiles": "CCOc1ccc(NC(=O)Cn2c(=O)n(CCCCCC(=O)NCc3ccccc3)c(=O)c3sccc32)cc1", "activity change, positive = activation": "inactive: -7.71%"},
      {"smiles": "Cn1c(C(=O)Nc2ccccc2)cc2sccc21", "Potency": "inconclusive: 11.2 µM [activator, single point]"},
      {"smiles": "CN(CCNC(=O)C1(O)c2ccccc2NC(=O)N1c1ccccc1)Cc1ccccc1", "note": "(stereo unspecified)", "Potency": "inconclusive: 0.199 µM [activator, full curve]"},
      {"smiles": "CCCc1ccc(OCC(=O)Nc2sc(C(=O)OCC)c(C)c2C(=O)OCC)cc1", "activity change, positive = activation": "inactive: -0.856%"},
      {"smiles": "COc1ccc(C2NC(=O)N(C)C3=C2C(=O)N(c2ccc(C(=O)O)cc2)C3)cc1", "note": "(stereo unspecified)", "activity change, positive = activation": "inactive: -7.2%"},
      {"smiles": "O=C(Nc1nc2c(F)cc(F)cc2s1)c1ccccn1", "Potency": "active: 2.82 µM"},
      {"smiles": "Cc1ccc(C(C(=O)NCc2ccco2)N(C(=O)CNC(=O)c2cccs2)c2c(C)cc(C)cc2C)cc1", "note": "(stereo unspecified)", "Potency": "inconclusive: 1.26 µM [activator, full curve, poor fit]"},
      {"smiles": "O=C(Nc1ccc([N+](=O)[O-])cn1)c1ccc2c(c1)OCO2", "Potency": "inconclusive: 3.16 µM [activator, single point]"},
      {"smiles": "O=C(COC(=O)C1CC1)c1c[nH]c2ccccc12", "Potency": "inconclusive: 25.1 µM [activator, single point]"},
      {"smiles": "O=S(=O)(Nc1cccc(-c2cn3cccnc3n2)c1)c1ccc(Cl)cc1", "Potency": "inconclusive: 1.58 µM [activator, partial curve]"},
      {"smiles": "CCOc1ccc(-c2ccc(/C=C3/C(=N)N4C(C)=CSC4=NC3=O)o2)c([N+](=O)[O-])c1", "activity change, positive = activation": "inactive: -10.1%"},
      {"smiles": "CC(Sc1ccccn1)C(=O)Nc1ccccc1", "note": "(stereo unspecified)", "Potency": "inconclusive: 15.8 µM [activator, partial curve]"},
      {"smiles": "Brc1ccc(-c2nnc(-c3ccccc3)o2)o1", "Potency": "active: 14.1 µM"},
      {"smiles": "C=CCN1N=C(/C=C/c2ccc(C)cc2)CCC1=O", "Potency": "inconclusive: 11.2 µM [activator, partial curve]"},
      {"smiles": "Cc1cccc(C)c1OCc1nc2c3cnn(-c4ccccc4F)c3ncn2n1", "activity change, positive = activation": "inactive: 1.15%"},
      {"smiles": "Nc1nc(Cl)cc(Sc2ccc3ccccc3c2)n1", "Potency": "inconclusive: 35.5 µM [activator, single point]"},
      {"smiles": "COc1cc(OC)cc(C(=O)Nc2ccccc2C(=O)N2CCCC2)c1", "Potency": "inconclusive: 5.62 µM [activator, single point]"},
      {"smiles": "O=C(Nc1nc2ccccc2[nH]1)C12CC3CC(CC(C3)C1)C2", "Potency": "active: 14.1 µM"},
      {"smiles": "CCCNS(=O)(=O)c1cc(-c2nn3c(C)nnc3c3ccccc23)ccc1C", "Potency": "inconclusive: 12.6 µM [activator, single point]"},
      {"smiles": "CCC(=O)Nc1ccc(NC(=O)C23CC4CC(CC(C4)C2)C3)cn1", "Potency": "inconclusive: 17.8 µM [activator, single point]"},
      {"smiles": "Cc1sc2nc(-c3cccnc3)nc(Cl)c2c1-c1ccccc1", "Potency": "inconclusive: 3.55 µM [activator, partial curve]"},
      {"smiles": "COc1ccccc1CNC(=O)c1cc2c(=O)oc3ccc(C)cc3c2s1", "activity change, positive = activation": "inactive: -4.24%"},
      {"smiles": "CC(=O)Nc1cccc(NC(=S)Nc2ccc(F)cc2F)c1", "Potency": "inconclusive: 8.91 µM [activator, partial curve]"},
      {"smiles": "COC(=O)c1nc2n(n1)C(c1ccccc1OC)C1=C(CCCC1=O)N2", "note": "(stereo unspecified)", "Potency": "inconclusive: 0.251 µM [activator, full curve, poor fit]"},
      {"smiles": "C=CCNC(=S)Nc1ccc(C)c(S(=O)(=O)N2CCCCC2)c1", "Potency": "inconclusive: 15.8 µM [activator, partial curve]"},
      {"smiles": "CCn1c(SCC(=O)O)nnc1C1CCCCC1", "Potency": "inconclusive: 1.78 µM [activator, partial curve, poor fit]"},
      {"smiles": "CCOc1ccc2[nH]c(=O)c(C(c3nnnn3Cc3ccco3)N3CCCC(C)C3)cc2c1", "note": "(stereo unspecified)", "Potency": "inconclusive: 0.0028 µM [activator, full curve, poor fit]"},
      {"smiles": "O=C(CSc1ccccc1)NCc1ccc(F)cc1", "Potency": "inconclusive: 3.55 µM [activator, full curve, poor fit]"},
      {"smiles": "Cc1ccc(N2C(=O)c3n[nH]c(C)c3C2c2ccc(Cl)cc2)cc1", "note": "(stereo unspecified)", "Potency": "inconclusive: 15.8 µM [activator, partial curve]"},
      {"smiles": "CCc1ccc(-n2c(=O)c3c4c(sc3n(Cc3cc(=O)n5c(C)cccc5n3)c2=O)CCC4)cc1", "activity change, positive = activation": "inactive: -4.04%"},
      {"smiles": "Cc1ccc2cn[nH]c2c1N", "activity change, positive = activation": "inactive: 6.37%"},
      {"smiles": "COc1cc(/C=C(\\C#N)c2nc3ccccc3[nH]2)ccc1Oc1ccc([N+](=O)[O-])cn1", "Potency": "inconclusive: 35.5 µM [activator, single point]"},
      {"smiles": "Cc1nnc2ccc(-c3ccc(NC(=O)c4cccnc4Cl)cc3)nn12", "Potency": "inconclusive: 3.98 µM [activator, partial curve, poor fit]"},
      {"smiles": "COc1ccccc1Nc1nc(N)nc(CN2CCC(Cc3ccccc3)CC2)n1", "Potency": "inconclusive: 12.6 µM [activator, partial curve, poor fit]"},
      {"smiles": "CO/N=C/c1c(-c2ccc(Cl)cc2)nc2cc(C)ccn12", "Potency": "inconclusive: 5.01 µM [activator, single point]"},
      {"smiles": "COC(=O)C1=C(C)NC(C)=C(C(=O)OC)C1c1ccc(NC(C)=O)cc1", "Potency": "inconclusive: 12.6 µM [activator, partial curve, poor fit]"},
      {"smiles": "Cc1ccc(NC2=CC(=O)CC(c3ccccc3)C2)cc1", "note": "(stereo unspecified)", "Potency": "inconclusive: 5.62 µM [activator, single point]"},
      {"smiles": "COc1cc(/C=N/NC(=O)CC23CC4CC(CC(C4)C2)C3)cc(Br)c1OCC(=O)N(C)C", "activity change, positive = activation": "inactive: -25.5%"},
      {"smiles": "COc1ccccc1OCCOc1ccc(/C=N/n2cnnc2)cc1", "Potency": "inconclusive: 3.98 µM [activator, partial curve, poor fit]"},
      {"smiles": "CCOC(=O)c1ccccc1NC(=O)c1cc(S(=O)(=O)N2CCOCC2)ccc1F", "Potency": "inconclusive: 7.94 µM [activator, full curve, poor fit]"},
      {"smiles": "N=c1scc(-c2ccccc2)n1/N=C/c1ccco1", "Potency": "inconclusive: 25.1 µM [activator, single point]"},
      {"smiles": "CCCC(=O)Nc1cc2nn(-c3ccccc3)nc2cc1C", "Potency": "inconclusive: 1.26 µM [activator, full curve]"},
      {"smiles": "O=C(NC(=S)Nc1ccc(F)cc1)c1ccc2c(c1)OCCO2", "Potency": "inconclusive: 3.98 µM [activator, full curve]"},
      {"smiles": "COc1ccc(NC(=O)Cn2c(=O)n(Cc3ccccc3OC)c(=O)c3cccnc32)cc1Cl", "activity change, positive = activation": "inactive: -3.37%"},
      {"smiles": "Cc1cc(-c2cn3ccccc3n2)c(C)n1-c1ccccc1", "Potency": "active: 5.62 µM"},
      {"smiles": "O=C(OCc1ccc(C(=O)c2ccccc2)cc1)c1cccc(-c2nnc(-c3ccccc3)o2)c1", "Potency": "inconclusive: 0.316 µM [activator, full curve]"},
      {"smiles": "CCOc1cccc(C(=O)NC(=S)Nc2cccc(C)c2)c1", "Potency": "inconclusive: 3.55 µM [activator, full curve]"},
      {"smiles": "CN1CCN(S(=O)(=O)c2cc([N+](=O)[O-])ccc2N2CCCCCC2)CC1", "Potency": "inconclusive: 5.62 µM [activator, single point]"},
      {"smiles": "O=c1c2cc(-c3ccccc3)sc2ncn1-n1cccc1", "Potency": "inconclusive: 4.47 µM [activator, partial curve]"},
      {"smiles": "Nc1nn2cc(-c3ccccc3)nc2c2ccccc12", "Potency": "active: 4.47 µM"},
      {"smiles": "CC(O)CNCCCCOc1ccc(OCc2ccccc2)cc1", "note": "(stereo unspecified)", "Potency": "inconclusive: 15.8 µM [activator, partial curve]"},
      {"smiles": "Nc1nonc1-c1nc2ccccc2n1Cc1c(Cl)cccc1Cl", "activity change, positive = activation": "inactive: -14.1%"},
      {"smiles": "CCc1nnc(NC(=O)C(=O)NCCOC(=O)c2ccccc2)s1", "Potency": "inconclusive: 12.6 µM [activator, single point]"},
      {"smiles": "O=C1c2ccccc2S(=O)(=O)N1CC1CC(c2ccccc2Cl)=NO1", "note": "(stereo unspecified)", "Potency": "active: 3.98 µM"},
      {"smiles": "CCN(CC)C(=S)SCC(=O)c1ccc(Br)cc1", "Potency": "inconclusive: 20 µM [activator, partial curve, poor fit]"},
      {"smiles": "CCc1ccc(C2CC(c3ccco3)=NN2S(C)(=O)=O)cc1", "note": "(stereo unspecified)", "Potency": "active: 0.501 µM"},
      {"smiles": "COc1ccc(-c2cnnn2-c2ccc(N)cc2)cc1OC", "Potency": "inconclusive: 10 µM [activator, partial curve]"},
      {"smiles": "Cc1ccc(C(=O)CSc2ccccn2)cc1", "Potency": "inconclusive: 10 µM [activator, partial curve]"},
      {"smiles": "Brc1ccc(-c2noc(-c3ccccc3)n2)o1", "Potency": "active: 11.2 µM"},
      {"smiles": "CCCCn1c(SCc2c(C)noc2C)nc2cc(S(N)(=O)=O)ccc21", "Potency": "inconclusive: 10 µM [activator, partial curve]"},
      {"smiles": "O=C(/C=C/c1ccc(Cl)cc1)Nc1nccs1", "Potency": "active: 3.98 µM"},
      {"smiles": "COc1ccc2c(c1)CCC1C2CC[C@@]2(C)C1CC[C@@H]2NCCCCCCN1C(=O)C=CC1=O", "note": "(stereo partly specified)", "activity change, positive = activation": "inactive: -19.3%"},
      {"smiles": "O=C(O)CCCCCNc1nc(=S)[nH]c2ccccc12", "Potency": "inconclusive: 10 µM [activator, single point]"},
      {"smiles": "CCCCc1ccc(-c2ccc(Br)cc2O)nc1", "Potency": "inconclusive: 31.6 µM [activator, single point]"},
      {"smiles": "COCCNS(=O)(=O)c1ccc2c3c(cccc13)C(=O)N2C", "Potency": "inconclusive: 14.1 µM [activator, partial curve]"},
      {"smiles": "COc1ccc(Br)cc1Cn1nnc(C(=O)Nc2ccc(C)cc2C)c1N", "activity change, positive = activation": "inactive: -79.5%"},
      {"smiles": "CCCc1ccc(OCc2ccc(C(=O)OC)o2)c(OC)c1", "Potency": "inconclusive: 5.62 µM [activator, partial curve, poor fit]"}
    ]}
  ]
}
